PubChem BioAssay AID651820 (National Center for Advancing Translational Sciences (NCATS), 2012)
Hit rate of the full screen: of about 340,000 compounds, about 12,000 (3.5%) were called active. The shares of active, inactive and inconclusive entries below differ from those in the screen. Calls follow the shape of the dose curve; as a rule, active = well fitted inhibition curve with a large enough effect; inconclusive = small, poorly fitted or top-dose-only effect, or another doubt; inactive = no such curve, though single readings can be large or run the other way. Potencies of inconclusive entries are left out as doubtful fits.

Experiment: qHTS Assay for Inhibitors of Hepatitis C Virus (HCV)
Details: Huh7.5.1 HCVcc-Cre (HCVcc is cell-culture hepatitis C virus) infection, luciferase reporter, 44 h; series mostly up to 41.8 µM
Outline: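 Whole-lifecycle infectious HCVcc-Cre system; cells 1,000/well, compound then virus (~0.5 moi) added 4 h after plating, 44 h culture. Luciferase read 15 sec following 15 min substrate incubation, room temp.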
Potency is read from the fitted curve at half-maximal effect; tags tell the direction and shape of the fitted curve.

Row | Compound | Potency
1 | O=c1[nH]c(C2CCN(S(=O)(=O)c3ccc(F)cc3)CC2)nc2c1nnn2Cc1ccc2c(c1)OCCO2 | inactive
2 | O=C(Nc1cccnc1)c1ccc(Cl)c(S(=O)(=O)N2CCCCCC2)c1 | inconclusive [inhibitor, partial curve, poor fit]
3 | COc1ccc(OC(C)C(=O)NC2CCCCCCC2)cc1 (stereo not given) | inactive
4 | COc1ccc([C@H]2CC(=O)C=C(c3cccc(OC(F)(F)F)c3)C2)cc1 | inactive
5 | COc1ccccc1N1CCN(C(=O)C2CCC(Cn3c(=S)[nH]c4ccccc4c3=O)CC2)CC1 (stereo not given) | inconclusive [inhibitor, single point]
6 | COc1ccnc(Oc2ccc(F)cc2)c1C(=O)N/C=N/OCc1ccc(Cl)cc1Cl | inactive
7 | Cc1cc(C)nc(CCNC(=O)c2cc(COc3c(C)cccc3C)on2)n1 | inconclusive [inhibitor, single point]
8 | COc1ccc(C(CNC(=O)c2ccc(-c3ccccc3)cc2)N(C)C)cc1OC (stereo not given) | inconclusive [inhibitor, partial curve]
9 | CC1CCCC(C)N1C(=O)CN1CCN(c2nc(-c3ccc(F)cc3)cs2)CC1 (stereo not given) | inconclusive [inhibitor, single point]
10 | CCN(CC)S(=O)(=O)c1ccc(C)c(NC(=O)Cc2ccc(S(=O)(=O)N3CCOCC3)s2)c1 | inconclusive [inhibitor, single point]
11 | C(=N\Nc1nc2ccccc2[nH]1)/c1c[nH]c2ccccc12 | inconclusive [inhibitor, single point]
12 | CC(C)Cn1c(N)c(C(=O)COC(=O)c2cc(C3CC3)nc3ccccc23)c(=O)n(C)c1=O | inconclusive [inhibitor, partial curve]
13 | COCC(C)NC(=O)/C(=C/c1ccccc1)c1ccccc1 (stereo not given) | inactive
14 | CCOC(=O)c1c(NC(C)=O)sc(/C(C)=N/Nc2ccc(C(=O)O)cc2)c1C | inconclusive [inhibitor, full curve, poor fit]
15 | CCCCn1cnc2c(c(CC#N)nn2-c2ccccc2)c1=N | inconclusive [inhibitor, partial curve]
16 | COc1ccccc1NC(=O)Nc1nc(CC(=O)NCc2ccccn2)cs1 | inconclusive [inhibitor, partial curve]
17 | O=C1C2C(c3cccc(/C=C/c4ccccc4)c3)CC=CC2C(c2ccc3ccccc3c2)N1Cc1ccccc1 (stereo not given) | inactive
18 | COc1ccc(NC(=O)CSc2nc(O)cc(=O)n2C)cc1 | inconclusive [inhibitor, single point]
19 | CCN1C(=O)N[C@@H](c2cccc(C(F)(F)F)c2)C(C(=O)OC)=C1C | inactive
20 | C[n+]1ccc(-c2ccccc2)c2ccccc21 | inconclusive [inhibitor, partial curve]
21 | CCc1c(C)nc2ncnn2c1N1CCN(S(=O)(=O)c2ccc(OC)cc2)CC1 | active: 1.78 µM
22 | Cc1ccccc1N1C(=O)c2sc3nc4c(c(=O)n3c2C1=O)CCC4 | inactive
23 | COc1cccc(CNC(=O)CN2C(=O)CSc3ccc(S(=O)(=O)N4CCCCC4)cc32)c1 | inactive
24 | Cc1ccc(N(C(=O)c2snc(C(N)=O)c2N)C(C(=O)NC2CCCC2)c2ccc(C)o2)cc1 (stereo not given) | inconclusive [inhibitor, single point]

Row | Compound | Potency
25 | COc1ccccc1CN1CC(C(=O)N2CCCCO2)CCC1=O (stereo not given) | inactive
26 | Cc1ccc(CNC(=O)CN(c2ccc(Cl)cc2)S(C)(=O)=O)cc1 | inactive
27 | CN(C)C(CNC(=O)c1cc(S(=O)(=O)N(C)c2ccccc2)ccc1Cl)c1ccccc1 (stereo not given) | active: 7.08 µM
28 | CN(CC(=O)Nc1ccc(Cl)c(C(F)(F)F)c1)C(=O)C1CCC1 | inconclusive [inhibitor, single point]
29 | CCOc1cc(C(=S)N2CCCCC2)ccc1OCC(=O)NCc1ccccc1 | inconclusive [inhibitor, partial curve]
30 | CCn1c(/C=C2\C(=O)Nc3ccccc32)nc2ccccc2c1=O | inconclusive [inhibitor, single point]
31 | CC(C)CCNC(=S)Nc1ccccc1F | inconclusive [inhibitor, full curve, poor fit]
32 | O=S(=O)(O)c1cccc(N=Nc2c(O)ccc3ccccc23)c1 | inactive
33 | Cc1ccc(OCC(=O)c2cc(C)n(Cc3cccs3)c2C)c([N+](=O)[O-])n1 | inconclusive [inhibitor, partial curve]
34 | COc1cc(S(=O)(=O)N2CCCCCC2)c(OC)cc1Br | inconclusive [inhibitor, single point]
35 | CCCCCCCOC(=O)C1=C(C)Nc2ncnn2C1c1cccs1 (stereo not given) | inconclusive [inhibitor, single point]
36 | CC1=Nc2cccc([N+](=O)[O-])c2NC(=O)C1 | inactive
37 | Cc1ccccc1NC(=O)/C=C/c1cccs1 | inactive
38 | CC[C@]12c3[nH]c4ccc(OC)cc4c3CCN1C(=O)C(CC(=O)NC/C=C(\C)CCC=C(C)C)C[C@@H]2C(=O)N1CCN(C(=O)c2ccco2)CC1 (stereo not given in full) | inconclusive [inhibitor, single point]
39 | Cc1cccc(NC2SC(=O)NC2=O)c1 (stereo not given) | inactive
40 | Cc1ccc(C(c2nnnn2C2CCCCC2)N2CCc3ccccc32)cc1 (stereo not given) | inconclusive [inhibitor, partial curve]
41 | COc1ccccc1-c1cc(C(=O)NN)[nH]n1 | inconclusive [inhibitor, single point]
42 | CCOc1ccc(CCNC(=O)c2cnc(C)cn2)cc1OCC | inactive
43 | O=C(C1CCC1)N1CCc2cc(S(=O)(=O)Nc3ccc4c(c3)OCO4)ccc21 | inconclusive [inhibitor, partial curve]
44 | COc1ccc(C2C(C#N)=C(/N=C/N3CCN(C)CC3)OC3=C2C(=O)CC(C)(C)C3)cc1OC (stereo not given) | inconclusive [inhibitor, single point]
45 | COc1ccc(C(=O)c2c(-c3cccc(C)c3)oc3ccc(N4CCOCC4)cc23)cn1 | inconclusive [inhibitor, partial curve]
46 | COc1cccc(C(=O)Nc2nnc(S(=O)(=O)N3CCCC3)s2)c1 | inactive
47 | COCCNC(=S)NNc1cccc(C(=O)O)c1 | inactive
48 | Fc1ccc(-c2nc3c(-c4ccc(F)cc4)cnn3cc2CCN2CCOCC2)cc1 | inconclusive [inhibitor, single point]

Row | Compound | Potency
49 | CCCC(=O)Nc1ccc(Cl)c(NC(=O)c2ccc([N+](=O)[O-])cc2Cl)c1 | inconclusive [inhibitor, partial curve]
50 | COc1ccc(Cl)cc1C(=O)NCC(=O)OCc1ccccc1 | inactive
51 | CCOc1ccccc1CNC(=O)CCCn1ccc2cc(S(=O)(=O)N3CCCC3)ccc21 | inactive
52 | CCOC(=O)N/N=C(/C)c1cccc(-n2cnnn2)c1 | inactive
53 | COc1ccc(-c2cc(C)no2)cc1S(=O)(=O)NCCCN(C)Cc1ccccc1 | inconclusive [inhibitor, single point]
54 | CCCn1c(NC(=O)c2cccc(S(=O)(=O)N3CCCC3)c2)nc2ccccc21 | active: 5.01 µM
55 | CC(=O)c1cccc(NC(=O)CCn2c(=S)oc3ccccc32)c1 | inconclusive [inhibitor, single point]
56 | O=C(c1cccs1)N(Cc1nc2sc3c(c2c(=O)[nH]1)CCCC3)C1CCCC1 | inconclusive [inhibitor, single point]
57 | CC(=O)c1ccc(OCCCC(=O)Nc2cccc(S(=O)(=O)N3CCCCCC3)c2)cc1 | inconclusive [inhibitor, single point]
58 | O=C(NCCc1ccccc1)c1cc(-c2ccncc2)nc2ccc(S(=O)(=O)N3CCOCC3)cc12 | inconclusive [inhibitor, partial curve]
59 | O=C(Nc1ccc2c(c1)OCCO2)c1ccc(Br)cc1 | inconclusive [inhibitor, single point]
60 | c1ccc(CCn2nnnc2C(c2cccnc2)N2CCN(c3ccccc3)CC2)cc1 (stereo not given) | inactive
61 | CCCOc1ccc(N2C(=O)CC(N(CCc3ccc(OC)cc3)C(=O)c3ccccc3)C2=O)cc1 (stereo not given) | inconclusive [inhibitor, single point]
62 | CCCCC(CC)COC(=O)c1ccc(N(C)C)cc1 (stereo not given) | inconclusive [inhibitor, single point]
63 | COc1cc(C(=O)NNC(=S)NC(=O)c2ccc3c(c2)OCO3)cc(OC)c1OC | inconclusive [inhibitor, full curve, poor fit]
64 | C=CCn1c(=O)c2c(nc(-n3nc(C)cc3C)n2C)n(C)c1=O | inactive
65 | CC(Oc1ccc2c(-c3ccccc3)cc(=O)oc2c1)C(=O)NCc1ccccn1 (stereo not given) | active: 25.1 µM
66 | O=C(NCCc1cccs1)C1CC(c2cccc(F)c2)=NO1 (stereo not given) | active: 3.55 µM
67 | CCN=c1scc(C)n1/N=C/c1cc(Br)c(O)c(OC)c1 | inconclusive [inhibitor, partial curve]
68 | CCC1=C(OC(=O)N(CC)CC)N2C(=O)OC(=NCC(=O)OC)[C@]2(C)[C@H]2C1=CC[C@H]1C(=O)N(C)C(=O)[C@H]12 | inactive
69 | O=c1c2ccccc2nc2c3ccccc3cnn12 | inconclusive [inhibitor, single point]
70 | O=C(CCc1ccccc1)NNC(=S)NC(=O)c1ccc(Cl)cc1 | inconclusive [inhibitor, full curve]
